# Source: paper PMC4336329 (PLoS ONE, 2015)
# Among all 310,000 compounds or so, about 14,000 (4.5%) showed an effect of 50% or more. Effects have a minus sign here. The list shows a part of the results.
# Target: human ether-à-go-go-related gene (hERG) potassium channel (human, UniProt Q12809)
# Assay: primary screen, population patch clamp on CHO cells stably expressing hERG
# 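Note: peak tail current of the secondary pulse compared with the same well before compound.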
# human ether-à-go-go-related gene (hERG) potassium channel, sequence (Q12809 whole entry, looked up): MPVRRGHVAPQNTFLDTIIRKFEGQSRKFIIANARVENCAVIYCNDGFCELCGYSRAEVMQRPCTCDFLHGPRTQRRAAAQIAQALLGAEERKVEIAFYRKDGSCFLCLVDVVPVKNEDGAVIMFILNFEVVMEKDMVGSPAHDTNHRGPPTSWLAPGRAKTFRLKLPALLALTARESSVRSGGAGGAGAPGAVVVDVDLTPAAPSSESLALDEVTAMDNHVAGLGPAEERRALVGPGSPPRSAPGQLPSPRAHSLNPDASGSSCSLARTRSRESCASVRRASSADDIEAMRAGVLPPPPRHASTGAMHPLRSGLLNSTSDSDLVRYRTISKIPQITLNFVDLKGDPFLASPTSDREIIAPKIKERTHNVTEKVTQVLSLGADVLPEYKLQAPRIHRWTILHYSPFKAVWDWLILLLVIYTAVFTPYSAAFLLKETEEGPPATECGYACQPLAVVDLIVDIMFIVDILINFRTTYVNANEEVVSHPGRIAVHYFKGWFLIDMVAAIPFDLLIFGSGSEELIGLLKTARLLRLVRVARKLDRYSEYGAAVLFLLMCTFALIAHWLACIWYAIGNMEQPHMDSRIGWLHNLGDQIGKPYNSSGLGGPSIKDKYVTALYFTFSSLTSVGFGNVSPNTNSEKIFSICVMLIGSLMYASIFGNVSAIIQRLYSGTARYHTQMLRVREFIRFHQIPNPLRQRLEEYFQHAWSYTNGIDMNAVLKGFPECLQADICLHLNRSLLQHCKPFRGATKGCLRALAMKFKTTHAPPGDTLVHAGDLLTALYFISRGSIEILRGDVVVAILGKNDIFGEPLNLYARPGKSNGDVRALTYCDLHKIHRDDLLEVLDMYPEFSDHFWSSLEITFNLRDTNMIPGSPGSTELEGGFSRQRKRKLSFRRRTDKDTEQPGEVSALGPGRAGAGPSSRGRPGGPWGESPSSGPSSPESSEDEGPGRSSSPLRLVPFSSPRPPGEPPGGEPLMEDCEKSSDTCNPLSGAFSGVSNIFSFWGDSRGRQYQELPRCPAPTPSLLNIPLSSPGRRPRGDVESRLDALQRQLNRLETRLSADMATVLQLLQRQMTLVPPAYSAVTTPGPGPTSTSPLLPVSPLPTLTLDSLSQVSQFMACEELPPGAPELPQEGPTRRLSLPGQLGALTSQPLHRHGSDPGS
row,Compound,"hERG current change (%, negative = inhibition) at 10uM"
1,O=C(CCNC(=O)c1ccco1)Nc1ccc(Cl)cc1F,-4.96%
2,O=C(CC(NCc1ccccn1)C(=O)O)Nc1ccccc1Cl (stereo not drawn),16.9%
3,COc1ccc(C)cc1NC(=O)CCCNC(=O)Cn1cnc2sc(C)c(C)c2c1=O,4.59%
4,CNC(=S)N(Cc1cc2ccc(OC)cc2[nH]c1=O)CC1CCCO1 (stereo not drawn),2.3%
5,O=C(CN1C(=O)CSc2ncccc21)N1CCOCC1,-6.66%
6,COc1ccc(S(=O)(=O)N2CCOC2CNC(=O)C(=O)NCc2cccnc2)cc1C (stereo not drawn),-6.8%
7,COC(=O)c1ccccc1NC(=O)Nc1c(C)n(C)n(-c2ccccc2)c1=O,11.7%
8,Cc1cc2ccccc2c(=O)n1CC(=O)NC1CCCCCC1,11.2%
9,COc1ccc(CCC(=O)NCc2ccccc2OC)cc1,10.1%
10,CN(c1nc(-c2ccccc2)cs1)C1CCS(=O)(=O)C1 (stereo not drawn),-16%
11,COc1ccc(-n2cc(CNCCc3cscn3)c(-c3ccccc3Cl)n2)cc1,-64.5%
12,CN(C)/C=C1/C(=O)N(c2ccc([N+](=O)[O-])cc2)N=C1c1ccccc1,-25.6%
13,CC(=O)Nc1cc2c(cc1NC(=O)Cn1nc(-c3ccccc3)ccc1=O)OCCO2,11.9%
14,O=C(NC1CCOc2ccccc21)c1ccccn1 (stereo not drawn),6.9%
15,O=C(c1ccc(C(F)(F)F)cc1)C1CCCN(Cc2ccncc2)C1 (stereo not drawn),-23.7%
16,C=C(Cl)COC(=O)[C@H]1C2C=CC(C2)C1C(=O)O (stereo partly drawn),4.93%
17,O=C(NC(=S)Nc1nc(-c2ccccc2)cs1)c1cccnc1,19.7%
18,O=C1CCCC(=O)N1c1ccc(Oc2ccc(Cl)cc2)cc1,-19.5%
19,O=C1CC(c2ccccc2)CCc2sccc2N1 (stereo not drawn),-5.86%
20,O=S(=O)(/N=C(/NS(=O)(=O)c1ccccc1)c1ccccc1)c1ccccc1,20%
21,CC1CCN(C(=O)CN(c2ccc3c(c2)OCO3)S(C)(=O)=O)CC1,10.3%
22,CC(=O)Nc1ccc(N2S(=O)(=O)c3ccccc3S2(=O)=O)cc1,2.53%
23,CCOc1ccc(C(=O)NCc2ccco2)cc1,3.48%

row,Compound,"hERG current change (%, negative = inhibition) at 10uM"
1,Cc1ccc(NC(=O)CCNS(=O)(=O)c2ccc3c(c2)c(=O)n(C)c(=O)n3C)cc1C,13%
2,CCn1c(CNC(=O)COc2ccc(C(C)C)cc2)nnc1SCC(=O)Nc1ccccc1F,-60.1%
3,COc1ccccc1Cn1[nH]nnc1=S,18.1%
4,OCCC1CN(Cc2ccc(F)cc2)CCN1CCCc1ccccc1 (stereo not drawn),-68.2%
5,O=C(NCc1ccncc1)C(=O)NCC1OCCCN1S(=O)(=O)c1ccccc1 (stereo not drawn),-4.44%
6,CCOC(=O)c1ccc(-n2c(C)nc3c(cnn3-c3ccccc3C)c2=O)cc1,1.21%
7,COc1ccc(CCNC(=O)C2CCN(C(=O)N(C)C)CC2)cc1OC,10.5%
8,CN(C)CCNC(=O)Nc1ccc([N+](=O)[O-])cc1,-12%
9,CC(=O)N(c1nnc(-c2cccc(C)c2)s1)C1CCCC1,8.79%
10,COc1ccc(N2CCN(CNC(=O)c3ccccc3)CC2)cc1,8.73%
11,CCCC(=O)Nc1ccccc1-c1nnn(CC(=O)Nc2ccc(OCC)cc2)n1,2.96%
12,N#Cc1cc2c(nc1SC1CC(=O)N(c3ccccc3)C1=O)CCC2 (stereo not drawn),-14.4%
13,CCOc1ccccc1NC(=S)Nc1ccccc1F,0.77%
14,O=C(N/N=C/c1ccc2c(c1)OCO2)c1cc(-c2ccncc2)nc2ccccc12,-3.29%
15,CCN(CC)S(=O)(=O)c1ccc(C)c(NC(=O)CSc2ncc(C(F)(F)F)cc2Cl)c1,-1.07%
16,COc1cc(NC(=O)NCC2CCN(Cc3ccccc3Cl)CC2)cc(OC)c1OC,3.03%
17,Cc1cc(C)cc(NC(=O)c2ccc(CNc3c(N4CCCC4)c(=O)c3=O)cc2)c1,24.4%
18,CCOC(=O)C/C(C)=N\Nc1nc(-c2ccccc2)cs1,-14.8%
19,COC(=O)C1=C(c2ccccc2)C[C@@H]2CC[C@H]1N2C(=O)NC1CCCCC1,-4.97%
20,Cc1cc(C)n(-c2ccc(C)c(Cl)c2)n1,0.586%
21,C=C(C)c1cccc(C(C)(C)NC(=O)Nc2cccnc2)c1,16.8%
22,CC(=O)NCCn1c(SCC(=O)NCC2CCCO2)nc2ccccc2c1=O (stereo not drawn),-11.1%
